Two compounds from PMC9742639, “Inhibition of glycogen synthase kinase-3-beta (GSK3β) blocks nucleocapsid phosphorylation and SARS-CoV-2 replication” (Molecular Biomedicine, 2022) can be followed below.

This assay has as its system SARS-CoV-2. As to the kind of experiment: High-content screen / dose-response of SARS-CoV-2-infected Huh-7.5.1 cells (dsRNA, nucleocapsid). It counts as cell-based. To be noted: Huh-7.5.1 cells infected with SARS-CoV-2.

For the compound `C[S+]([O-])c1ccc(-c2coc3ccc(-c4nnc(SCc5cccc(F)c5)o4)cc23)cc1` (centres unmarked) [P-7657632], the “Selectivity Index (SI), CC50 over ED50” value was determined as 14.

On to `CSc1ccc(-c2coc3ccc(-c4nnc(N)o4)cc23)cc1Cl` [P-9071942], for which the “Selectivity Index (SI), CC50 over ED50” value is reported as 8.
